In patent US20180155419A1, “ANTI-MIF ANTIBODIES IN THE TREATMENT OF CANCERS CONTAINING MUTANT TP53 AND/OR MUTANT RAS” (Baxalta GmbH, priority 2015, published 2018):
Positions count from the first letter of the chain named. “Also recorded” adds a separate entry of the source. Blank lines part the entries; values can stand above or below the molecule they belong to.

Columns and labels:
[1] = biological target: T1, redMIF (Homo sapiens, UniProt P14174); experiment: Differential binding of anti-MIF antibodies to redMIF / unmodified recombinant MIF (Biacore surface plasmon resonance); details: for binding to redMIF: reduced / unmodified MIF; for binding of recombinant MIF proteins to coated antibody (Biacore): native HBS-EP buffer without addition of ProClin300
T1 sequence (P14174 1-115): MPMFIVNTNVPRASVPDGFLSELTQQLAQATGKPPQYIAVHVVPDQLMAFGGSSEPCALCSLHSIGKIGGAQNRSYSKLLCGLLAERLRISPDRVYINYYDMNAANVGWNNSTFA
Method: (§1) The anti-oxMIF antibodies used in this invention are able to discriminate between ox and red MIF, which are generated by mild oxidation or reduction, respectively. The anti-oxMIF antibodies are useful to specifically detect oxMIF. Discrimination between these conformers is assessed by ELISA or surface plasmon resonance. Both techniques can be performed as well known to a person skilled in the art and as described below.
(§2) The antibodies were coated on a CM5 (=carboxymethylated dextran) chip and recombinant MIF protein, pre-incubated with 0.2% Proclin®300, were injected. (Proclin®300 consists of oxidative isothiazolones that stabilize the oxMIF structure).
(§3) A preferred method for the determination of binding is surface plasmon resonance of an antibody to e.g. rec. […] “Binding” and “specific binding” is used interchangeably here to denote the above.

[2] = biological target: T2, oxMIF (Homo sapiens, UniProt P14174); experiment: Differential binding of anti-MIF antibodies to oxMIF (ELISA or Biacore surface plasmon resonance); details: for binding to oxMIF: oxMIF (oxidized MIF); for binding to redox-modulated or Proclin300/crosslinker-treated recombinant MIF: recombinant MIF (human, murine, rat, CHO, monkey), Cys/Glu-mediated mild oxidation or Proclin300 or protein crosslinkers
T2 sequence (P14174 1-115): T1 sequence (P14174 1-115)
Method: as §1, §2, §3

[3] = tested on: AKT; experiment: Phosphorylation of AKT in starved PC3 cells (western blot); assay type: cell-based, human; details: starved PC3 cells (K-ras G12V, TP53 deletion), 10% FCS, 10 nM recombinant MIF, 100 nM antibody; versus untreated or control antibody
Method: (§4) FIG. 1: Anti-oxMIF inhibits phosphorylation of ERK and AKT in vitro. […] Cell lysates were separated by SDS-PAGE and blotted on nitrocellulose membranes, and the phosphorylated forms of ERK1/2 (FIG. 1A) or AKT (FIG. 1B) were visualized with phosphor-specific antisera. The total levels of the enzymes were determined by using antisera that recognized all forms of the enzymes and were visualized as a loading control.
(§5) Cell lysates were separated by SDS-PAGE and blotted on nitrocellulose membranes, and the phosphorylated forms of ERK1/2 (FIG. 1A) or AKT (FIG. 1B) were visualized with phosphor-specific antisera. The total levels of the enzymes were determined by using antisera that recognized all forms of the enzymes and were visualized as a loading control. […] Mutant K-ras protein activates ERK1/2 and AKT through a cascade that leads to ERK1/2 and AKT phosphorylation.

[4] = tested on: ERK1/2; experiment: Phosphorylation of ERK1/2 in starved PC3 cells (western blot); assay type: cell-based, human; details: starved PC3 cells (K-ras G12V, TP53 deletion), 10% FCS, 10 nM recombinant MIF, 100 nM antibody; versus untreated or control antibody
Method: as §4, §5

[5] = tested on: II-8; experiment: PC3 prostate cancer xenograft, intratumoral II-8 by multiplex immunoassay; assay type: in vivo, Mf1 nude mice; details: 5 or 15 mg/kg intraperitoneally every other day; tumor lysates
Method: (§6) FIG. 3: Tumor volume (FIG. 3D) and intratumoral levels of the cytokines, II-6 (FIG. 3B), II-8 (FIG. 3A) and GRO-alpha (FIG. 3C) were analyzed for tumors from a PC3 prostate cancer xenograft in vivo model after treatment with the indicated antibodies. The data shown represent the mean.
(§7) Human prostate adenocarcinoma PC3 cells (containing a mutant KRAS gene encoding a K-ras G12V mutation, and containing a deletion mutation in the TP53 gene) were harvested from exponentially growing cultures, mixed with growth factor-depleted matrigel and inoculated subcutaneously into the right flank of Mf1 nude mice (2×10^6 cells in 0.25 mL Matrigel/mouse, n=10/group). On the next day the antibody treatment was started (5 or 15 mg/kg intraperitoneally every other day). On day 7 after cell injection, the size of tumor xenograft was started to be measured and volume was calculated using the formula V=0.5 x a x b^2 (where “a” is the longest diameter; “b” is the shortest diameter. After termination of the experiment, tumors were excised, flash frozen and homogenized in lysis buffer. Cleared lysates were analyzed by multiplex immunoassays.

[6] = tested on: II-6; experiment: PC3 prostate cancer xenograft, intratumoral II-6 by multiplex immunoassay; assay type: in vivo, Mf1 nude mice; details: 5 or 15 mg/kg intraperitoneally every other day; tumor lysates
Method: as §6, §7

[7] = tested on: IGROV-1 human ovarian cancer cells; experiment: Xenograft model of ovarian cancer, IGROV-1 luciferase cells, bioluminescence; assay type: in vivo, Nude mice; details: 60 mg/kg i.p. every other day from week 4; measured in 4th, 5th and 6th week; IGROV-1 (KRAS wild-type, p53 Y126C)
Method: FIG. 2: Tumor measurements in a xenograft model of ovarian cancer based on inhibition of IGROV-1 cells stably expressing the luciferase reporter gene. IGROV-1 human ovarian cancer cells (containing a wild-type KRAS gene, and containing a mutant TP53 gene encoding a p53 Y126C mutation) stably expressing the luciferase reporter gene were implanted on day 0. […] The treatment was carried out every other day. In the 4th, 5th and 6th week after injection of the tumor cells, the tumors were assessed by measuring luciferase activity (total flux in photons per second, p/s) (FIG. 2B).
In order to further confirm the effects of anti-MIF antibodies in the treatment of cancers containing mutations of TP53, a xenograft model of ovarian cancer based on inhibition of IGROV-1 human ovarian cancer cells (containing a wild-type KRAS gene, and containing a mutant TP53 gene encoding a p53 Y126C mutation) stably expressing the luciferase reporter gene was used. Nude mice were injected i.p. with 1×10^7 IGROV-1 luciferase cells. Prior to start of the treatment protocol, animals were assessed for equal tumor burden and randomized into the respective treatment arms.
Measuring luciferase activity: At different time points following cancer cells injection or antibody treatment, tumor growth and spread were monitored by Bioluminescent Assay. […]

[8] = tested on: Human prostate adenocarcinoma PC3 cells; experiment: PC3 prostate cancer xenograft, tumor volume; assay type: in vivo, Mf1 nude mice; details: 5 or 15 mg/kg intraperitoneally every other day; compared to the control antibody
Method: as §6, §7

[9] = tested on: GRO-alpha; experiment: PC3 prostate cancer xenograft, intratumoral GRO-alpha by multiplex immunoassay; assay type: in vivo, Mf1 nude mice; details: 5 or 15 mg/kg intraperitoneally every other day; tumor lysates
Method: as §6, §7

B1: RAB4: anti-MIF (oxMIF) antibody, light chain SEQ ID NO: 2, heavy chain (IgG4) SEQ ID NO: 6; plasmids DSM 25110 and DSM 25112 (antibody)
heavy: EVQLLESGGGLVQPGGSLRLSCAASGFTFSIYAMDWVRQAPGKGLEWVSGIVPSGGFTKYADSVKGRFTISRDNSKNTLYLQMNSLRAEDTAVYYCARVNVIAVAGTGYYYYGMDVWGQGTTVTVSSASTKGPSVFPLAPCSRSTSESTAALGCLVKDYFPEPVTVSWNSGALTSGVHTFPAVLQSSGLYSLSSVVTVPSSSLGTKTYTCNVDHKPSNTKVDKRV[not shown - human IgG4 Fc with S228P (EU numbers)]
light: DIQMTQSPGTLSLSPGERATLSCRASQGVSSSSLAWYQQKPGQAPRLLIYGTSSRATGIPDRFSGSASGTDFTLTISRLQPEDFAVYYCQQYGRSLTFGGGTKVEIKRTVAAPSVFIFPPSDEQLKSGTASVVCLLNNFYPREAKVQWKVDNALQSGNSQESVTEQDSKDSTYSLSSTLTLSKADYEKHKVYACEVTHQGLSSPVTKSFNRGEC
modifications: Heavy chain of RAB4; Light chain of RAB4
binding to redMIF [1]: do not bind to unmodified MIF in its reduced state; also recorded: incapable of binding to redMIF
binding to oxMIF [2]: specifically bind to oxMIF
binding to redox-modulated or Proclin300/crosslinker-treated recombinant MIF [2]: leads to the binding

B2: RAB0: anti-MIF (oxMIF) antibody, light chain SEQ ID NO: 3, heavy chain (IgG4) SEQ ID NO: 7; plasmids DSM 25114 and DSM 25115 (antibody)
heavy: B1 heavy with I31W, V52Y, F57R
light: B1 light
modifications: Heavy chain of RAB0; Light chain of RAB0
binding of recombinant MIF proteins to coated antibody (Biacore) [1]: none of the recombinant MIF proteins bound
binding to redMIF [1]: do not bind to unmodified MIF in its reduced state; also recorded: incapable of binding to redMIF
binding to oxMIF [2]: specifically bind to oxMIF
binding to redox-modulated or Proclin300/crosslinker-treated recombinant MIF [2]: leads to the binding

B4: RAB9: anti-MIF (oxMIF) antibody, light chain SEQ ID NO: 1, heavy chain (IgG4) SEQ ID NO: 5; plasmids DSM 25111 and DSM 25113 (antibody)
heavy: EVQLLESGGGLVQPGGSLRLSCAASGFTFSIYSMNWVRQAPGKGLEWVSSIGSSGGTTYYADSVKGRFTISRDNSKNTLYLQMNSLRAEDTAVYYCAGSQWLYGMDVWGQGTTVTVSSASTKGPSVFPLAPCSRSTSESTAALGCLVKDYFPEPVTVSWNSGALTSGVHTFPAVLQSSGLYSLSSVVTVPSSSLGTKTYTCNVDHKPSNTKVDKRV[not shown - human IgG4 Fc with S228P (EU numbers)]
light: DIQMTQSPSSLSASVGDRVTITCRSSQRIMTYLNWYQQKPGKAPKLLIFVASHSQSGVPSRFRGSGSETDFTLTISGLQPEDSATYYCQQSFWTPLTFGGGTKVEIKRTVAAPSVFIFPPSDEQLKSGTASVVCLLNNFYPREAKVQWKVDNALQSGNSQESVTEQDSKDSTYSLSSTLTLSKADYEKHKVYACEVTHQGLSSPVTKSFNRGEC
modifications: Heavy chain of RAB9; Light chain of RAB9
binding of recombinant MIF proteins to coated antibody (Biacore) [1]: none of the recombinant MIF proteins bound
binding to redMIF [1]: do not bind to unmodified MIF in its reduced state; also recorded: incapable of binding to redMIF
binding to oxMIF [2]: specifically bind to oxMIF
binding to redox-modulated or Proclin300/crosslinker-treated recombinant MIF [2]: leads to the binding

Continued, in another order:

binding to redMIF [1]: incapable of binding to redMIF
binding to oxMIF [2]: specifically bind to oxMIF
B3: RAM4: anti-MIF (oxMIF) antibody, heavy chain SEQ ID NO: 13, light chain SEQ ID NO: 14; DSM 25862 and DSM 25861 (antibody)
heavy: EVQLLESGGGLVQPGGSLRLSCAASGFTFSIYAMDWVRQAPGKGLEWVSGIVPSGGFTKYADSVKGRFTISRDNSKNTLYLQMNSLRAEDTAVYYCARVNVIAVAGTGYYYYGMDVWGQGTTVTVSSASTKGPSVFPLAPSSKSTSGGTAALGCLVKDYFPEPVTVSWNSGALTSGVHTFPAVLQSSGLYSLSSVVTVPSSSLGTQTYICNVNHKPSNTKVDKRV[not shown - human IgG1 Fc]
light: B1 light
modifications: RAM4hc; RAM4lc
phosphorylation of AKT [3]: reduced the phosphorylation
phosphorylation of ERK1/2 [4]: reduced the phosphorylation

binding to redMIF [1]: incapable of binding to redMIF
binding to oxMIF [2]: specifically bind to oxMIF
B5: RAM9: anti-MIF (oxMIF) antibody, heavy chain SEQ ID NO: 11, light chain SEQ ID NO: 12; DSM 25860 and DSM 25859 (antibody)
heavy: EVQLLESGGGLVQPGGSLRLSCAASGFTFSIYSMNWVRQAPGKGLEWVSSIGSSGGTTYYADSVKGRFTISRDNSKNTLYLQMNSLRAEDTAVYYCAGSQWLYGMDVWGQGTTVTVSSASTKGPSVFPLAPSSKSTSGGTAALGCLVKDYFPEPVTVSWNSGALTSGVHTFPAVLQSSGLYSLSSVVTVPSSSLGTQTYICNVNHKPSNTKVDKRV[not shown - human IgG1 Fc]
light: B4 light
modifications: RAM9hc; RAM9lc
intratumoral level of II-8 [5]: reduced
phosphorylation of AKT [3]: reduced the phosphorylation
intratumoral level of II-6 [6]: reduced
luciferase activity (total flux) of tumors [7]: reduction in luciferase activity
tumor volume [8]: decreased
phosphorylation of ERK1/2 [4]: reduced the phosphorylation
intratumoral level of GRO-alpha [9]: reduced
